Data as given in PubChem BioAssay AID1963576 (National Center for Advancing Translational Sciences (NCATS), 2024).
In all, about 46,000 compounds went through this assay and about 60 (0.1%) were called active. Not shown: some 3% with an inconclusive outcome. The call rests on the fitted dose curve; in most records, active means well fitted inhibition curve with a large enough effect; inconclusive means small, poorly fitted or top-dose-only effect; inactive means no such curve, though single readings can be large or run the other way. The list shows a part of the results.

Experiment: Primary qHTS assay for Inhibitors of ovarian cancer metastasis using an organotypic tumor microenvironment (TME) model. Further: nearly all actives have a fitted effect of over 65% in size.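 On activity change, negative = inhibition: plate controls were DMSO wells for no effect and tomatine positive control wells for full effect.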
Settings: SKOV3ip1-GFP adhesion/invasion on 3D omental model, fluorescence; series mostly up to 45.8 µM; activity change, negative = inhibition: at the top concentration
Summary of the method: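 qHTS, 4-pt dose (0.36-46 umol/L); SKOV3ip1-GFP, 1,200 cells/well, no FBS; primary omental fibroblast/mesothelial co-culture 48 h pre-grown; 2 h RT + 16 h 37 C; PBS wash, 4% PFA; GFP count 488/509 nm.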

Activity change, negative = inhibition, inactive:
Cc1cccc(C)c1-n1ncc(C(=O)N2CCN(c3ccccc3)CC2)c1C1CCN(C(=O)OC(C)(C)C)CC1 -4.37%
COC(=O)C(C)Sc1ncnc2c1c(-c1ccccc1)cn2-c1ccc(F)cc1 (stereo not given) -12.4%
CCOc1ccc(S(=O)(=O)Nc2ccc3c(c2)N(C(C)=O)CCC3)cc1 12.7%
COc1ccc(OC)c(NC(=O)CN2C(=O)COc3ccc(S(=O)(=O)NC4CCCC4)cc32)c1 -1.43%
Cc1ccc(CNS(=O)(=O)c2cc3c(cc2C)NC(=O)CO3)cc1 4.47%
Cc1ccc(OCc2nc3ccccc3n2CCOc2ccc(Cl)cc2)cc1 -12.1%
O=C(c1ccco1)c1cn(CCOc2ccc(F)cc2)c2ccccc12 12.8%
CS(=O)(=O)CCC(C(=O)Nc1cccc(C(F)(F)F)c1)N1Cc2ccccc2C1=O (stereo not given) -20.7%
CCC(Cn1nnc2ccccc2c1=O)NC(=O)Nc1ccc(C)c(C)c1 (stereo not given) -0.128%
CC(C)COc1ccc(C(=O)N(Cc2ccc(N(C)C)cc2)Cc2ccco2)cc1 -9.52%
Cc1ccc(-c2nnc(Nc3cccc(O)c3)c3ccccc23)cc1S(=O)(=O)N1CCN(C)CC1 1.05%
Cc1ccc(C(=O)Nc2cccc(-c3nc4ccccc4o3)c2)c(Cl)c1 -1.88%
CC(C)c1ccc(NC(=O)Cn2c(=O)n(CCc3ccccc3)c(=O)c3ccccc32)cc1 -7.08%
Cc1ccc(-c2nc(SCC(=O)NCc3ccco3)c3c(=O)n(C)c(=O)n(C)c3n2)cc1 18.1%
COc1cc(Cl)c(C)cc1Nc1ncnc2c1nc1n2CCCC1 14.3%
CCOC(=O)Cn1c(=O)c2c(nc3n2CCN3c2ccc(CC)cc2)n(C)c1=O -7.35%
CCc1nc(-c2cc(S(=O)(=O)N3CCN(c4ccccc4OC)CC3)ccc2OC)no1 -0.451%
Cc1ccc(NC(=O)CC(C)S(=O)(=O)c2ccc3c(c2)NC(=O)CO3)cc1Cl (stereo not given) 2.02%
CCc1ccc(NC(=O)C(CC)n2c(=O)c(C(F)(F)F)nc3ccccc32)cc1 (stereo not given) 138%
COc1cccc(NS(=O)(=O)c2ccc(-c3cc(C)no3)s2)c1 -20.5%
COc1ccc(-c2cc(C(=O)Nc3c(C)nn(Cc4ccc(C)cc4)c3C)no2)cc1OC 1.41%
COc1ccc(Cl)cc1NC(=O)CN1C(=O)COc2ccc(S(=O)(=O)NC3CCCC3)cc21 19.4%
CCCOc1cccc(C(=O)N(Cc2ccc(C)o2)C2CCS(=O)(=O)C2)c1 (stereo not given) -5.22%
CC(=O)N1CCCc2cc(S(=O)(=O)N3CCC(C(=O)NCc4cccc(C)c4)CC3)ccc21 15.3%
CN(C(=O)CSc1cn(CC(=O)N2CCOCC2)c2ccccc12)c1ccccc1 -5.65%
COC(=O)c1ccccc1NC(=O)c1c(NC(=O)c2ccco2)sc2c1CCC(C(C)(C)C)C2 (stereo not given) 0.366%
COc1cc(NC(=O)CC2C(=O)N(c3cccc(C)c3)C(=O)N2Cc2ccc(F)cc2)cc(OC)c1 (stereo not given) 7.49%
COCCNc1sc(S(=O)(=O)c2ccc(C)cc2)nc1S(=O)(=O)c1ccc(C)cc1 26.7%
N#Cc1ccc(C(c2ccc(C#N)cc2)n2cncn2)cc1 27.7%
CC(C)(C)C(=O)NCCc1nc2ccccc2n1CCCCOc1ccc(Cl)cc1 -6.29%
Cc1oc2ncn(CC(C)C)c(=O)c2c1C(=O)Nc1cc(F)ccc1F 2.28%
CC(=O)c1ccc(NC(=O)Cn2c(=O)c3cccn3c3ccccc32)cc1 0.8%
Cc1cc(C)cc(S(=O)(=O)Nc2cccc(-c3ccc(N4CCOCC4)nn3)c2)c1 25.4%
COc1ccc(Cn2c(C(=O)O)c(CNCCc3cccs3)c3ccc(C)cc32)cc1 7.11%
COc1ccc(-n2nc3c(N4CCCC(C(=O)NCc5cccc(F)c5)C4)nnc(C)c3c2C)cc1 (stereo not given) -24%
COc1c2occc2cc2ccc(=O)oc12 -1.13%
O=C(Oc1ccc(F)cc1)c1nc(SCc2ccccc2F)ncc1Cl -9.63%
Cc1oc2ncn(C)c(=O)c2c1C(=O)N1CCN(c2ccccc2)CC1 -8.3%
COc1cccc(CNC(=O)c2cc3c(s2)-c2c(C)cccc2OC3)c1 -11.6%
Cc1ccc(C)c(OCCn2cc(C(=O)c3ccco3)c3ccccc32)c1 6.06%
CC1CCCN(CCCNC(=O)c2cn(C)c3ccc(S(=O)(=O)N(C)C4CCCCC4)cc3c2=O)C1 (stereo not given) 6.07%
Cc1ccc2nc(N3CCN(C(=O)C4CC4)CC3)sc2c1 -0.0512%

outcome, inactive:
CN(CC(=O)Nc1cccc(C(F)(F)F)c1)S(=O)(=O)c1cccs1
COCCCNC(=O)CSc1nc2cc(OC)c(OC)cc2c2nc(-c3ccccc3)nn12
CCc1ccc(NC(=O)CCS(=O)(=O)c2ccc3c(c2)n(C)c(=O)c(=O)n3C)cc1
Cc1ccc(Nc2nnc(-c3ccc(C)c(S(=O)(=O)NCc4nc5ccccc5[nH]4)c3)c3ccccc23)cc1
Cc1ccc(Nc2nn3c(=O)c4cc5c(cc4nc3s2)OCO5)cc1Cl
CCOC(=O)c1cc(-c2ccccc2)n(-c2cccc(C(=O)Nc3ccc(OCC)cc3)c2)c1C
Cc1ccc(-c2nnc(Nc3ccc(O)cc3)c3ccccc23)cc1S(=O)(=O)N1CCOCC1
COc1cccc(Cn2c(=O)n(Cc3ccco3)c(=O)c3oc4ccccc4c32)c1
CCCCN(CC)CCNC(=O)Cn1cc2c(n1)-c1c(oc(C(=O)N3CCCC3)c1C)CC2
CCCN(C(=O)c1noc2c1COc1ccc(C)cc1-2)c1ccc(Cl)c(Cl)c1
CCOC(=O)c1cc2c(=O)n3ccccc3nc2n(CC(C)C)c1=NC(=O)c1c(-c2c(F)cccc2Cl)noc1C
CC(=O)Nc1ccc(NC(=O)CSc2nccn2C)cc1
Cc1ccc(NC(=O)Cn2c(=O)n(CCC(=O)N3CCc4ccccc4C3)c(=O)c3ccccc32)cc1
Cc1ccc(Cn2c(C(=O)O)c(CNC3CCCCCC3)c3ccc(C)cc32)cc1
COc1ccccc1CNC(=O)c1ccc2c(c1)N(Cc1cccc(Cl)c1)C(=O)c1ccccc1S2(=O)=O
COc1ccccc1C(=O)NC1(C(F)(F)F)C(=O)Nc2c1c(=O)[nH]c(=O)n2-c1ccccc1 (stereo not given)
COc1ccc(-c2nc(CNS(=O)(=O)c3ccccc3)cs2)cc1
CCn1c(CNC(=O)C23CC4CC(CC(C4)C2)C3)nnc1SCC(=O)Nc1ccccc1
